# Assay results as given in PMC9911399, “Two distinct binding modes provide the RNA-binding protein RbFox with extraordinary sequence specificity”.
# Where a chain is given by its changes, count along the chain named. This is one part of the list.
# T1: RBFOX1 RRM (Homo sapiens, UniProt Q9NWB1 109-208)
# T1 sequence: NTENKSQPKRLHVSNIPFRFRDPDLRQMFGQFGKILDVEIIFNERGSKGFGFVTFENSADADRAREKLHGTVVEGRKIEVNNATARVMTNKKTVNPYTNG
# B1: GUCAUGG (DNA:RNA)
# RNA: GGGAGACCGGAAUUCAGAUUGUCCGUCAUGGUUAAAUCCCGUCGUAGCCACCA
# DNA 1: CAATCTGAATTCCGGTCTCCC
# DNA 2: TGGTGGCTACGACGGGATT
# B2: AUGGAGC (DNA:RNA)
# RNA: B1 RNA with G25A, C27G, A28G, U29A, G31C
# DNA 1: CAATCTGAATTCCGGTCTCCC
# DNA 2: TGGTGGCTACGACGGGATT
# B3: UGGAGAU (DNA:RNA)
# RNA: B1 RNA with G25U, U26G, C27G, U29G, G30A, G31U
# DNA 1: CAATCTGAATTCCGGTCTCCC
# DNA 2: TGGTGGCTACGACGGGATT
# B4: GCCAAGC (DNA:RNA)
# RNA: B1 RNA with U26C, U29A, G31C
# DNA 1: CAATCTGAATTCCGGTCTCCC
# DNA 2: TGGTGGCTACGACGGGATT
# B5: UACUAGC (DNA:RNA)
# RNA: B1 RNA with G25U, U26A, A28U, U29A, G31C
# DNA 1: CAATCTGAATTCCGGTCTCCC
# DNA 2: TGGTGGCTACGACGGGATT
# B6: AACGGGA (DNA:RNA)
# RNA: B1 RNA with G25A, U26A, A28G, U29G, G31A
# DNA 1: CAATCTGAATTCCGGTCTCCC
# DNA 2: TGGTGGCTACGACGGGATT
# B7: CACCAAG (DNA:RNA)
# RNA: B1 RNA with G25C, U26A, A28C, U29A, G30A
# DNA 1: CAATCTGAATTCCGGTCTCCC
# DNA 2: TGGTGGCTACGACGGGATT
# B8: ACGGGAA (DNA:RNA)
# RNA: GGGAGACCGGAAUUCAGAUUGUCCACGGGAAUUAAAUCCCGUCGUAGCCACCA
# DNA 1: CAATCTGAATTCCGGTCTCCC
# DNA 2: TGGTGGCTACGACGGGATT
# B9: CUGAACC (DNA:RNA)
# RNA: B1 RNA with G25C, C27G, U29A, G30C, G31C
# DNA 1: CAATCTGAATTCCGGTCTCCC
# DNA 2: TGGTGGCTACGACGGGATT
# B10: UCAUACG (DNA:RNA)
# RNA: B8 RNA with A25U, G27A, G28U, G29A, A30C, A31G
# DNA 1: CAATCTGAATTCCGGTCTCCC
# DNA 2: TGGTGGCTACGACGGGATT
# B11: UGCGCCG (DNA:RNA)
# RNA: B1 RNA with G25U, U26G, A28G, U29C, G30C
# DNA 1: CAATCTGAATTCCGGTCTCCC
# DNA 2: TGGTGGCTACGACGGGATT
# B12: UUAGCUU (DNA:RNA)
# RNA: B8 RNA with A25U, C26U, G27A, G29C, A30U, A31U
# DNA 1: CAATCTGAATTCCGGTCTCCC
# DNA 2: TGGTGGCTACGACGGGATT
# B13: ACACGGG (DNA:RNA)
# RNA: B8 RNA with G27A, G28C, A30G, A31G
# DNA 1: CAATCTGAATTCCGGTCTCCC
# DNA 2: TGGTGGCTACGACGGGATT
# B14: AACAUCC (DNA:RNA)
# RNA: B1 RNA with G25A, U26A, G30C, G31C
# DNA 1: CAATCTGAATTCCGGTCTCCC
# DNA 2: TGGTGGCTACGACGGGATT
# B15: CUUUAAC (DNA:RNA)
# RNA: B8 RNA with A25C, C26U, G27U, G28U, G29A, A31C
# DNA 1: CAATCTGAATTCCGGTCTCCC
# DNA 2: TGGTGGCTACGACGGGATT
# B16: AAAUAGG (DNA:RNA)
# RNA: B1 RNA with G25A, U26A, C27A, A28U, U29A
# DNA 1: CAATCTGAATTCCGGTCTCCC
# DNA 2: TGGTGGCTACGACGGGATT
# B17: GUCUAUG (DNA:RNA)
# RNA: B1 RNA with A28U, U29A, G30U
# DNA 1: CAATCTGAATTCCGGTCTCCC
# DNA 2: TGGTGGCTACGACGGGATT
# B18: UGAGAAC (DNA:RNA)
# RNA: B8 RNA with A25U, C26G, G27A, G29A, A31C
# DNA 1: CAATCTGAATTCCGGTCTCCC
# DNA 2: TGGTGGCTACGACGGGATT
# B19: UGGAGCC (DNA:RNA)
# RNA: B8 RNA with A25U, C26G, G28A, A30C, A31C
# DNA 1: CAATCTGAATTCCGGTCTCCC
# DNA 2: TGGTGGCTACGACGGGATT
# B20: UCCAUGC (DNA:RNA)
# RNA: B1 RNA with G25U, U26C, G31C
# DNA 1: CAATCTGAATTCCGGTCTCCC
# DNA 2: TGGTGGCTACGACGGGATT
# B21: AUGUGCU (DNA:RNA)
# RNA: B8 RNA with C26U, G28U, A30C, A31U
# DNA 1: CAATCTGAATTCCGGTCTCCC
# DNA 2: TGGTGGCTACGACGGGATT
# B22: AUAGGGG (DNA:RNA)
# RNA: B8 RNA with C26U, G27A, A30G, A31G
# DNA 1: CAATCTGAATTCCGGTCTCCC
# DNA 2: TGGTGGCTACGACGGGATT
# B23: ACUUGUU (DNA:RNA)
# RNA: B8 RNA with G27U, G28U, A30U, A31U
# DNA 1: CAATCTGAATTCCGGTCTCCC
# DNA 2: TGGTGGCTACGACGGGATT
# B24: UUACCAU (DNA:RNA)
# RNA: B8 RNA with A25U, C26U, G27A, G28C, G29C, A31U
# DNA 1: CAATCTGAATTCCGGTCTCCC
# DNA 2: TGGTGGCTACGACGGGATT
# B25: AGGACUA (DNA:RNA)
# RNA: B8 RNA with C26G, G28A, G29C, A30U
# DNA 1: CAATCTGAATTCCGGTCTCCC
# DNA 2: TGGTGGCTACGACGGGATT
# B26: CCUCUAA (DNA:RNA)
# RNA: B8 RNA with A25C, G27U, G28C, G29U
# DNA 1: CAATCTGAATTCCGGTCTCCC
# DNA 2: TGGTGGCTACGACGGGATT
# B27: AAAGACC (DNA:RNA)
# RNA: B8 RNA with C26A, G27A, G29A, A30C, A31C
# DNA 1: CAATCTGAATTCCGGTCTCCC
# DNA 2: TGGTGGCTACGACGGGATT
# B28: AAGAAAU (DNA:RNA)
# RNA: B8 RNA with C26A, G28A, G29A, A31U
# DNA 1: CAATCTGAATTCCGGTCTCCC
# DNA 2: TGGTGGCTACGACGGGATT
# B29: AAAUACC (DNA:RNA)
# RNA: B8 RNA with C26A, G27A, G28U, G29A, A30C, A31C
# DNA 1: CAATCTGAATTCCGGTCTCCC
# DNA 2: TGGTGGCTACGACGGGATT
# B30: GACACUC (DNA:RNA)
# RNA: B1 RNA with U26A, U29C, G30U, G31C
# DNA 1: CAATCTGAATTCCGGTCTCCC
# DNA 2: TGGTGGCTACGACGGGATT
# B31: CCAUAUA (DNA:RNA)
# RNA: B8 RNA with A25C, G27A, G28U, G29A, A30U
# DNA 1: CAATCTGAATTCCGGTCTCCC
# DNA 2: TGGTGGCTACGACGGGATT
# Target: T1, RBFOX1 RRM
# Test: EMSA; HiTS-Eq, 1 nM pool, 10 min; buffer printed only for the single-RNA assays: 10 mM Tris pH 7.5, 150 mM NaCl, 3.4 mM EDTA, 0.001% NP-40, 30 C
# Details: tags: His6 N-terminal (pET28a); label: 5' 32P
# Procedure, shortened: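 A pool of RNA with 7 randomized nucleotides, 5′-radiolabelled and with DNA-annealed flanks, was equilibrated at 1 nM for 10 min in 50 µL with purified RbFox RRM, wild type or mutant, across increasing protein concentrations. Free RNA was separated by 8% native PAGE, excised, reverse-transcribed, barcoded by PCR and sequenced. Relative association constants were obtained from read-count changes of each RNA species versus the control reaction and normalised to the cognate motif.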
row,Binder,binding signal
1,B1,0.0107 KA relative to UGCAUGU
2,B2,0.00976 KA relative to UGCAUGU
3,B3,0.0283 KA relative to UGCAUGU
4,B4,0.0064 KA relative to UGCAUGU
5,B5,0.0104 KA relative to UGCAUGU
6,B6,0.00903 KA relative to UGCAUGU
7,B7,0.00342 KA relative to UGCAUGU
8,B8,0.00621 KA relative to UGCAUGU
9,B9,0.00609 KA relative to UGCAUGU
10,B10,0.0047 KA relative to UGCAUGU
11,B11,0.0245 KA relative to UGCAUGU
12,B12,0.00985 KA relative to UGCAUGU
13,B13,0.00929 KA relative to UGCAUGU
14,B14,0.000235 KA relative to UGCAUGU
15,B15,0.00844 KA relative to UGCAUGU
16,B16,0.00393 KA relative to UGCAUGU

row,Binder,binding signal
1,B17,0.01 KA relative to UGCAUGU
2,B18,0.0124 KA relative to UGCAUGU
3,B19,0.0192 KA relative to UGCAUGU
4,B20,0.0103 KA relative to UGCAUGU
5,B21,0.0154 KA relative to UGCAUGU
6,B22,0.00511 KA relative to UGCAUGU
7,B23,0.0105 KA relative to UGCAUGU
8,B24,0.00195 KA relative to UGCAUGU
9,B25,0.0141 KA relative to UGCAUGU
10,B26,0.00423 KA relative to UGCAUGU
11,B27,0.000671 KA relative to UGCAUGU
12,B28,0.00494 KA relative to UGCAUGU
13,B29,0.00238 KA relative to UGCAUGU
14,B30,0.00273 KA relative to UGCAUGU
15,B31,0.00195 KA relative to UGCAUGU
